Results reported in PMC6919601, “Identification of Plasmodium dipeptidyl aminopeptidase allosteric inhibitors by high throughput screening” (PLoS ONE, 2019).
Hit rate of the full screen: of about 110,000 compounds, about 230 (0.21%) showed an effect of 50% or more. This is one part of the list.
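Further: 30 min substrate incubation versus DMSO and 10 µM JCP410 controls.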

The compounds below were run against DPAP1 (Plasmodium falciparum, UniProt Q8IIJ9) (assay: primary screen, percent inhibition; read by cleavage of a fluorogenic dipeptide substrate; higher = more effect of the substance).
Chain of DPAP1 (Q8IIJ9 whole entry, looked up): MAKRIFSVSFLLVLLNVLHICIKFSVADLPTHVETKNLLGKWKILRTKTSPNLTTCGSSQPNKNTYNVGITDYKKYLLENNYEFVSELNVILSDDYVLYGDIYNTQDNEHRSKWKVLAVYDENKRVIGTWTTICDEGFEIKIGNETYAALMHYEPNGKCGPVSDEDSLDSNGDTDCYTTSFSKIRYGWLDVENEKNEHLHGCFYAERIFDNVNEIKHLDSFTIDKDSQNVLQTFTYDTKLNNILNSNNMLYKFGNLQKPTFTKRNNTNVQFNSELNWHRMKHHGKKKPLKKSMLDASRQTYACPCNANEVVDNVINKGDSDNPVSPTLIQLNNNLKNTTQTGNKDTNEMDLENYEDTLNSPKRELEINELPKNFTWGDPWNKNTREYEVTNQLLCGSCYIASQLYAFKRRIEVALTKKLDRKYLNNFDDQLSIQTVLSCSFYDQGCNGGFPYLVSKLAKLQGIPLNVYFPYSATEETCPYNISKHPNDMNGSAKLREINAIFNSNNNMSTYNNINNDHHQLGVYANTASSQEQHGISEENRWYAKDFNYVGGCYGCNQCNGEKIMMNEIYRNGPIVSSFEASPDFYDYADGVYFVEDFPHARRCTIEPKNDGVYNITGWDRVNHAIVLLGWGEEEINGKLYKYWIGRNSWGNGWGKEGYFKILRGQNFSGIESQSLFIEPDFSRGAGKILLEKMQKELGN
Parameters: species or system P. falciparum D10 trophozoite lysates; single well
In the case of `O=C(NC12CC3CC(CC(C3)C1)C2)n1ncc2cc(Cl)ccc21`, the “% Inhibition @ 10 uM” value is reported as 5.42%.
For `O=C1C2CC=CCC2C(=O)N1c1ccc(Oc2ccccc2)cc1` (stereo not drawn), the “% Inhibition @ 10 uM” value was -2.34%.
In the case of `CC(C)CCNC(=O)c1cnn2c(C(F)(F)F)cc(-c3cccs3)nc12`, the “% Inhibition @ 10 uM” value is reported as 1.16%.
In the case of `O=c1oc2ccccc2cc1-c1nnnn1-c1ccc(F)cc1`, the “% Inhibition @ 10 uM” value is reported as -1.07%.
With `COc1ccc(Br)cc1/C=N/n1cnnc1` the “% Inhibition @ 10 uM” value was 6.23%.
In the case of `CCOc1ccc(C2C(C#N)=C(N)Oc3cc(C)n(Cc4cccnc4)c(=O)c32)cc1` (stereo not drawn), the “% Inhibition @ 10 uM” value is reported as 3.42%.
In the case of `O=C1c2ccccc2-c2c1cnc1c(-c3ccccc3)cnn21`, the “% Inhibition @ 10 uM” value is reported as -5.66%.
With `CC1CCCC(NC(=O)CCCn2c3ccccc3c3cnnc(O)c32)C1C` (stereo not drawn) the “% Inhibition @ 10 uM” value was -0.281%.
`COc1ccc(Cn2c(SCc3ccc(C(=O)O)cc3)nc3cccnc32)cc1` was tested, and the “% Inhibition @ 10 uM” value was 1.63%.
In the case of `CO/N=C(\C(=O)Sc1nc2ccccc2s1)c1csc(N)n1`, the “% Inhibition @ 10 uM” value is reported as 7.24%.
`C=CCN1C(=O)N/C(=C/c2ccc(OCc3ccccc3C#N)c(OC)c2)C1=O` was tested, and the “% Inhibition @ 10 uM” value was -5.7%.
`Cc1cc2c([nH]c3ccccc32)c(C)n1` was tested, and the “% Inhibition @ 10 uM” value was 6.5%.
For `O=S(=O)(Nc1ccc(S(=O)(=O)Nc2cccc3ccccc23)cc1)c1ccc2c(c1)OCCO2`, the “% Inhibition @ 10 uM” value was -0.473%.
With `CCCNC(=O)C1CCCN(c2nc3ccc(OCC)cc3s2)C1` (stereo not drawn) the “% Inhibition @ 10 uM” value was 0.137%.
`Cn1c(=O)n(C)c2cc(/C=C3/NC(=O)N(Cc4ccccc4)C3=O)ccc21` was tested, and the “% Inhibition @ 10 uM” value was -16%.
For `c1ccc(-c2ccc(CNCCSc3nnnn3-c3ccccc3)o2)cc1`, the “% Inhibition @ 10 uM” value was -8.57%.
For `COc1ccc(-c2cn3nc(N4CCCCC4)sc3n2)cc1`, the “% Inhibition @ 10 uM” value was -0.759%.
`COc1ccc(C(C(C(=O)c2ccco2)N2CCOCC2)N2CCOCC2)cc1` (stereo not drawn) was tested, and the “% Inhibition @ 10 uM” value was -5.2%.
For `N#CC1=C(N)Oc2[nH]nc(C(F)(F)F)c2C1c1ccccc1` (stereo not drawn), the “% Inhibition @ 10 uM” value was -2.77%.
With `Cc1ccc(N2C(=O)c3ccccc3C2C#N)cc1Cl` (stereo not drawn) the “% Inhibition @ 10 uM” value was -0.69%.
In the case of `CCOc1ccc(CNCc2c(C(=O)O)n(Cc3ccc(F)cc3Cl)c3cc(OC)ccc23)cc1`, the “% Inhibition @ 10 uM” value is reported as 2.06%.
With `Cc1nc(C(=O)O)cc2c1[nH]c1ccccc12` the “% Inhibition @ 10 uM” value was 2.26%.
`Cc1ccc(-n2nc3ccc(N)cc3n2)cc1` was tested, and the “% Inhibition @ 10 uM” value was -4.21%.
For `CCC(C)N(CCNCc1c(C(=O)O)n(Cc2ccccc2C)c2ccccc12)C1CCCCC1` (stereo not drawn), the “% Inhibition @ 10 uM” value was -3.21%.
For `CC1=CC(c2ccccc2)n2nc(NC(=O)CCC(=O)O)nc2N1` (stereo not drawn), the “% Inhibition @ 10 uM” value was -5.28%.
With `Cc1ccc(NC(=O)C23CC4CC(C2)CC(n2cnc(Br)n2)(C4)C3)c(C)c1` the “% Inhibition @ 10 uM” value was 4.05%.
In the case of `COc1ccc(C(=O)OCC(=O)c2ccc(Br)cc2)cc1OC`, the “% Inhibition @ 10 uM” value is reported as 10.4%.
With `N#C/C(=C\c1cccc2ccccc12)c1nc(-c2ccc(F)cc2)cs1` the “% Inhibition @ 10 uM” value was 0.467%.
For `COc1cccc(-c2ccc(C(=O)N[C@@H](CC(C)C)C(=O)NCC#N)cc2)c1`, the “% Inhibition @ 10 uM” value was 1.71%.
With `CC(=O)Nc1c(C(=O)N(C)Cc2ccco2)cnn1-c1ccccc1Cl` the “% Inhibition @ 10 uM” value was 7.02%.
`C=CCn1/c(=N\C(=O)CC)n(Cc2ccccc2)c2ccccc21` was tested, and the “% Inhibition @ 10 uM” value was -3.39%.
For `COc1cc(NC(=O)Cc2ccc(Br)cc2)c(OC)cc1Cl`, the “% Inhibition @ 10 uM” value was -10.2%.
For `Nc1cc(=O)nc(SCC(=O)NCc2ccccc2)n1CCc1ccccc1`, the “% Inhibition @ 10 uM” value was -2.5%.
In the case of `O=C1CCCC(O)=C1C(C1=C(O)CCCC1=O)c1ccc(O)cc1`, the “% Inhibition @ 10 uM” value is reported as 5.54%.
In the case of `O=C(c1cc(-c2ccccc2)nc2ccc(Br)cc12)N1CCOCC1`, the “% Inhibition @ 10 uM” value is reported as -0.641%.
In the case of `O=C(Cn1c(=O)c2cccn2c2cccnc21)NC1CCCCCC1`, the “% Inhibition @ 10 uM” value is reported as -1.81%.
With `CC1CCCCN1Cc1nc2c(c(=O)n(C)c(=O)n2C)n1CC(N)=O` (stereo not drawn) the “% Inhibition @ 10 uM” value was -5.1%.
In the case of `CCC(C)NC(=O)CN1C(=O)c2cccc3cccc1c23` (stereo not drawn), the “% Inhibition @ 10 uM” value is reported as -7.93%.
For `O=C(Nc1ccccn1)NC(C(F)(F)F)C(F)(F)F`, the “% Inhibition @ 10 uM” value was -4.21%.
With `CCOc1ccc(CNC(=O)C2CCCN(c3nnc(C)c4c(C)n(-c5ccc(C)cc5)nc34)C2)cc1` (stereo not drawn) the “% Inhibition @ 10 uM” value was -0.518%.
With `Cc1ccc2nc3c(cc(C#N)c(=O)n3-c3nnc(SCc4ccc(Cl)cc4)s3)c(=O)n2c1` the “% Inhibition @ 10 uM” value was -0.551%.
In the case of `CC(CN(C)CC(O)c1ccccc1)c1ccccc1` (stereo not drawn), the “% Inhibition @ 10 uM” value is reported as -1.75%.
`COc1ccc(CCNC(=O)c2c(O)nc3c(c2O)CCCC3)cc1OC` was tested, and the “% Inhibition @ 10 uM” value was -2.17%.
For `Cn1ncc(Cl)c1C(=O)N1CCc2ccccc2C1`, the “% Inhibition @ 10 uM” value was 0.866%.
In the case of `CC1(C)CC(=O)C2=C(C1)N(Cc1ccccc1Cl)C(=O)C2(NC(=O)c1ccccc1)C(F)(F)F` (stereo not drawn), the “% Inhibition @ 10 uM” value is reported as -1.52%.
For `CCCOc1ccc(Oc2nc(N(C)C)nc(N(C)C)n2)nn1`, the “% Inhibition @ 10 uM” value was -7.8%.
`CC(=O)N1C(c2ccccc2)CC(=O)OC1c1ccc2c(c1)OCO2` (stereo not drawn) was tested, and the “% Inhibition @ 10 uM” value was -1.33%.
For `O=C(Cc1ccc(F)cc1)Nc1ccccn1`, the “% Inhibition @ 10 uM” value was -4.66%.
